Assay results taken from PubChem BioAssay AID686979 (National Center for Advancing Translational Sciences (NCATS), 2013).
About 50,000 (12%) of roughly 420,000 compounds were called active. Inconclusive means that the source gave no clear call. Such entries were picked first, then a sample of the others. Calls follow the shape of the dose curve; as a rule, active = well fitted inhibition curve with a large enough effect; inconclusive = small, poorly fitted or top-dose-only effect; inactive = flat fitted curve, though single readings scatter. Potencies of inconclusive entries are left out as doubtful fits.

Test: qHTS for Inhibitors of human tyrosyl-DNA phosphodiesterase 1 (TDP1): qHTS in cells in presence of CPT; also: nearly all actives have a fitted effect of over 55% in size
Conditions: chicken DT40 Tdp1-/-;hTDP1 cells + 20 nM CPT, ATP luminescence, 48 h; activity change, negative = growth inhibition: at 46.2 µM (top of the series) unless noted
Summary of the method: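 Chicken DT40 Tdp1-/- cells complemented with human TDP1, 400 cells/well, exposed to compounds plus 20 nM camptothecin for at least 48 h at 37 C; viability read as ATP content by CellTiter-Glo luminescence.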
% is scaled to controls: 0 for no effect and ±100 for the full control effect; potency is read from the fitted curve at half-maximal effect; tags tell the direction and shape of the fitted curve.

Q: With COc1ccc2oc(C(=O)OCC(=O)N(Cc3ccccc3)C(C)C)c(C)c2c1 as the molecule, how does the Potency read?
A: inconclusive [inhibitor, single point]

Q: For Cc1ccc(NS(=O)(=O)c2ccc3[nH]c4c(c3c2)CCCCCC4)cc1C, which Potency is on record?
A: inconclusive [inhibitor, single point]

Q: Which Potency does the source give for COCCNC(=O)c1cc(-c2ccccc2)n(CC2CC(c3ccc(OC)cc3)=NO2)n1 (stereo not given) here?
A: inconclusive [inhibitor, partial curve]

Q: With CC(=O)N1c2ccc(S(=O)(=O)N3CCC(C(=O)Nc4ccc(F)cc4)CC3)cc2CC1C (stereo not given) as the molecule, how does the Potency read?
A: active: 18.4 µM

Q: Which Potency does the source give for COc1ccc2c(c1)CCc1c-2n[nH]c1C(=O)NCCC(C)C here?
A: inconclusive [inhibitor, single point]

Q: With CC1(C2CC2)NC(=O)N(CC(=O)Nc2ccc(OC(F)F)cc2)C1=O (stereo not given) as the molecule, how does the “activity change, negative = growth inhibition” value read?
A: inactive: -1.25%

Q: With Cc1cccc(N2CCN(Cc3oc(CO)cc(=O)c3O)CC2)c1C as the molecule, how does the Potency read?
A: inconclusive [inhibitor, single point]

Q: For CCCCN(CCCNC(=O)C1CCN(S(=O)(=O)N2CCOCC2)CC1)c1ccccc1, which Potency is on record?
A: active: 13 µM

Q: Which Potency does the source give for CCCN(CCC)C(=S)NC1CC2C=CC1C2 (stereo not given) here?
A: inconclusive [inhibitor, single point]

Q: For CCN(c1ccccc1)S(=O)(=O)c1cc(C(=O)NCC(c2ccco2)N2CCCCC2)ccc1C (stereo not given), which Potency is on record?
A: inconclusive [inhibitor, single point]

Q: With Cc1ccc(-n2nnnc2CN2CCCCC2)cc1 as the molecule, how does the “activity change, negative = growth inhibition” value read?
A: inactive: 9.44%

Q: With COc1cc(C(=O)NCCC(=O)NC2CCCCCCC2)cc(OC)c1OC as the molecule, how does the Potency read?
A: inconclusive [inhibitor, single point]

Q: For CCOc1ccc(/C=N/Nc2cc(N3CCOCC3)nc(C)n2)c(O)c1, which Potency is on record?
A: inconclusive [inhibitor, single point]

Q: Which Potency does the source give for CN1CCN(C(=O)C2=C[C@H](c3csc4ccccc34)C[C@H](OCCCCO)O2)CC1 here?
A: inconclusive [inhibitor, single point]

Q: Which Potency does the source give for Cc1ccc(S(=O)(=O)N(Cc2cccnc2)Cc2cc3ccccc3[nH]c2=O)cc1 here?
A: inconclusive [inhibitor, partial curve]

Q: With COCC(C)NC(=O)NC(=O)c1ccc(Cl)cc1 (stereo not given) as the molecule, how does the Potency read?
A: inconclusive [inhibitor, single point]

Q: For CCOc1ccc(S(=O)(=O)Nc2ccc3c(c2)CCCN3S(=O)(=O)c2ccc(C)cc2)cc1, which Potency is on record?
A: inconclusive [inhibitor, single point]

Q: For COc1ccc(/C=N/NC(=O)c2ccn[nH]2)cc1COc1ccc([N+](=O)[O-])c(C)c1, which Potency is on record?
A: inconclusive [inhibitor, single point]

Q: With O=C(CSc1nnc2ccccn12)NNC(=O)c1cccc([N+](=O)[O-])c1 as the molecule, how does the “activity change, negative = growth inhibition” value read?
A: inactive: 8.83%

Q: With COc1ccc(C)c(NC(=O)NCCc2cnc[nH]2)c1 as the molecule, how does the “activity change, negative = growth inhibition” value read?
A: inactive: 30%

Q: With Cc1cn([C@H]2C[C@H](O)[C@@H](COS(=O)(=O)O)O2)c(=O)[nH]c1=O as the molecule, how does the Potency read?
A: active: 3.66 µM

Q: With CCOc1ccccc1CNC(=O)CCCn1c(=O)c2cccn2c2ccc(F)cc21 as the molecule, how does the Potency read?
A: inconclusive [inhibitor, single point]

Q: Which “activity change, negative = growth inhibition” value does the source give for N#Cc1c(SCC(N)=O)nc2c(c1-c1ccc(O)cc1)CCCC2 here?
A: inactive: -12.1%

Q: For CC(C)(C)c1ccc2c(S(=O)(=O)O)c(C(C)(C)C)ccc2c1, which Potency is on record?
A: inconclusive [inhibitor, single point]

Q: With Fc1cccc(Cl)c1/C=N/n1c(-c2cccnc2)n[nH]c1=S as the molecule, how does the Potency read?
A: inconclusive [inhibitor, single point]

Q: For CCN(CC)c1ncnc2c1ncn2[C@H]1CN(Cc2ccc3c(c2)OCO3)C[C@@H](CO)O1, which Potency is on record?
A: inconclusive [inhibitor, single point]

Q: For Cc1ccc(S(=O)(=O)N(C)c2ccc(C(=O)Nc3cccnc3)cc2)cc1, which Potency is on record?
A: inconclusive [inhibitor, single point]

Q: Which “activity change, negative = growth inhibition” value does the source give for CCOc1ccc(NC(=O)CC2C(=O)N(c3ccccc3)C(=O)N2Cc2ccccn2)cc1 (stereo not given) here?
A: inactive: -22.2%

Q: Which “activity change, negative = growth inhibition” value does the source give for CCOC(=O)COC(=O)c1ccc(Oc2cc(C)nc(SC)n2)cc1 here?
A: inactive: 22.2%

Q: With COC(=O)c1sc2cccc(F)c2c1S(=O)(=O)NCc1ccccc1Cl as the molecule, how does the “activity change, negative = growth inhibition” value read?
A: inactive: 19.7%

Q: With COc1ccc(NC(=O)CN(C)S(=O)(=O)c2ccc3nc(C)sc3c2)cc1Cl as the molecule, how does the Potency read?
A: active: 23.1 µM

Q: For CCc1c(C)sc(NC(=S)N2CC(C)OC(C)C2)c1C(=O)OC (stereo not given), which “activity change, negative = growth inhibition” value is on record?
A: inactive: 0.775%

Q: With COc1ccc(C(C(=O)NC2CCCCC2)N(C(=O)c2ccccn2)c2cccnc2)cc1 (stereo not given) as the molecule, how does the “activity change, negative = growth inhibition” value read?
A: inactive: 14.6%

Q: With Cn1c(C(=O)NCc2ccccc2F)cc2cc(S(=O)(=O)N3CCCCC3)ccc21 as the molecule, how does the Potency read?
A: inconclusive [inhibitor, single point]

Q: For Cc1cccc(CCNC(=O)CCNS(=O)(=O)c2cc(Br)cnc2N)c1, which Potency is on record?
A: inconclusive [inhibitor, single point]

Q: With Cc1ccc(NC(=O)CSc2nc3ccccc3c(=O)[nH]2)cc1[N+](=O)[O-] as the molecule, how does the Potency read?
A: inconclusive [inhibitor, single point]

Q: With COc1ccc(CCNCc2c(C(=O)O)c(C)n(Cc3cccc(C)c3)c2C)cc1OC as the molecule, how does the Potency read?
A: inconclusive [inhibitor, single point]

Q: For COc1cccc(/C=N/NC(=O)c2ccc([N+](=O)[O-])cc2Cl)c1O, which Potency is on record?
A: active: 4.61 µM

Q: For Cc1cc(C)nc(SC2CCCCC2NS(=O)(=O)c2ccccc2)n1 (stereo not given), which Potency is on record?
A: inconclusive [inhibitor, partial curve, poor fit]

Q: Which “activity change, negative = growth inhibition” value does the source give for CC(=O)NS(=O)(=O)c1ccc(NS(=O)(=O)c2ccccc2[N+](=O)[O-])cc1 here?
A: inactive: 2.01%

Q: With Cc1cccc(Cn2c(SCC(=O)Nc3ccccc3)nc3c2c(=O)[nH]c(=O)n3C)c1 as the molecule, how does the Potency read?
A: inconclusive [inhibitor, single point]

Q: For O=C(NC1CCCCC1)C1CCCN1C(=O)Nc1ccccc1 (stereo not given), which “activity change, negative = growth inhibition” value is on record?
A: inactive: 3.35%

Q: With CCC(C)NC(=O)c1ccc(COc2ccccc2Cl)cc1 (stereo not given) as the molecule, how does the Potency read?
A: inconclusive [inhibitor, single point]

Q: Which “activity change, negative = growth inhibition” value does the source give for CCn1c(SCC(=O)NC2CC2)nnc1-c1ccccc1 here?
A: inactive: 5.47%

Q: For O=C(Nc1cccc(-c2cccc(F)c2)c1)C1CCN(Cc2ccc(CO)o2)CC1, which Potency is on record?
A: inconclusive [inhibitor, single point]

Q: Which Potency does the source give for CCOc1ccc(C(=O)CCC(=O)Nc2cccc(S(=O)(=O)N3CCCCC3)c2)cc1 here?
A: inconclusive [inhibitor, single point]

Q: For CC1CCCC(C)N1CCCNC(=O)c1nn(C)c2c1CSc1ccccc1-2 (stereo not given), which “activity change, negative = growth inhibition” value is on record?
A: inactive: -2.39%

Q: With CCOC(=O)c1scc(-c2ccc(C)cc2)c1S(=O)(=O)N1CCN(c2ccccc2)CC1 as the molecule, how does the Potency read?
A: active: 13 µM

Q: For COc1ccc([C@@H]2[C@@H]3C(=O)N(C(C)(C)C)C(=O)[C@@H]3[C@]3(Cc4ccc(Cl)cc4)C(=O)N(c4ccc(Br)cc4)C(=O)N23)cc1, which Potency is on record?
A: inconclusive [inhibitor, partial curve]

Q: For COc1cccc(/C=C2\Sc3ccc(C(=O)NCC4CCCO4)cc3N(C)C2=O)c1 (stereo not given), which Potency is on record?
A: active: 18.4 µM

Q: Which Potency does the source give for CC1=NN(C(=O)c2ccccc2C)C(O)(c2ccc(Cl)cc2)C1 (stereo not given) here?
A: inconclusive [inhibitor, single point]

Q: Which Potency does the source give for Cc1cccc(C)c1NC(=S)/N=C/N(C)C here?
A: inconclusive [inhibitor, single point]

Q: For CCc1c(C)c(C#N)c2nc3ccccc3n2c1Nc1c(C)n(C)n(-c2ccccc2)c1=O, which Potency is on record?
A: inconclusive [inhibitor, single point]

Q: Which Potency does the source give for COc1ccc(-c2noc(COc3ccc(C)cc3C)n2)cc1OC here?
A: inconclusive [inhibitor, single point]

Q: With Cc1cc(C)n2c(NC3CCCCC3)c(CC(C)C)nc2n1 as the molecule, how does the Potency read?
A: inconclusive [inhibitor, single point]

Q: With CCOc1ccccc1NC(=O)c1ccccc1-c1nc(-c2ccccc2OC)no1 as the molecule, how does the Potency read?
A: active: 16.4 µM

Q: For O=[N+]([O-])c1ccc(Nc2ccc(F)cc2)cc1, which Potency is on record?
A: inconclusive [inhibitor, single point]

Q: Which Potency does the source give for Cc1ccc(CN2C(=O)CSC2c2ccccc2F)cc1 (stereo not given) here?
A: inconclusive [inhibitor, single point]

Q: For Cc1n[nH]c(C)c1S(=O)(=O)N1CCN(S(=O)(=O)c2cccc(F)c2)CC1, which “activity change, negative = growth inhibition” value is on record?
A: inactive: -0.705%

Q: For CCOc1cc(C(=O)Nc2ccc3nc(N4CCN(C)CC4)cc(C)c3c2)cc(OCC)c1OCC, which Potency is on record?
A: active: 18.4 µM

Q: For COc1ccc(CC2(CO)COc3ccccc3C2=O)cc1 (stereo not given), which Potency is on record?
A: inconclusive [inhibitor, partial curve]

Q: For CCCCn1c(=O)c2ccccc2n2c(=S)[nH]nc12, which “activity change, negative = growth inhibition” value is on record?
A: inactive: 14.1%

Q: With CCOC(=O)C1CCCN(C(=O)CCNC(=O)Cn2ccc3ccccc3c2=O)C1 (stereo not given) as the molecule, how does the “activity change, negative = growth inhibition” value read?
A: inactive: -16.3%

Q: Which Potency does the source give for CC(C)(C)[C@H]1C=C(C(=O)N2CCN(Cc3ccc4c(c3)OCO4)CC2)O[C@@H](OCc2ccc(CO)cc2)C1 here?
A: active: 20.6 µM

Q: With CCCCN1C(=N)N([C@@H](CCC)CN2CCC[C@H]2CN2C(N)=NC[C@@H]2Cc2ccccc2)C[C@H]1[C@H](C)CC as the molecule, how does the Potency read?
A: active: 13 µM

Q: With CN(C)CCNC(=O)c1ccc2c(=O)n(Cc3ccc(Cl)cc3)c(=S)[nH]c2c1 as the molecule, how does the Potency read?
A: active: 20.6 µM

Q: With NC(=O)c1ncn([C@@H]2O[C@H](CNCc3ccccc3OCc3ccc(Cl)cc3Cl)[C@@H](O)[C@H]2O)n1 as the molecule, how does the “activity change, negative = growth inhibition” value read?
A: inactive: -26.8%

Q: Which Potency does the source give for NC(=O)c1c(NC(=O)CSc2nnc(-c3ccco3)n2N)sc2c1CCCC2 here?
A: inconclusive [inhibitor, single point]

Q: Which “activity change, negative = growth inhibition” value does the source give for COCC(C)n1c(C)cc(C(=O)CN2c3cccc4cccc(c34)S2(=O)=O)c1C (stereo not given) here?
A: inactive: -27.2%

Q: With COc1ccc(-c2noc(CSc3nc4ccccc4c(=O)n3-c3ccc(C)cc3)n2)cc1 as the molecule, how does the Potency read?
A: inconclusive [inhibitor, single point]
